Test results from PubChem BioAssay AID485294 (National Center for Advancing Translational Sciences (NCATS), 2010).
Several values for one entry are separate records, joined by “and”; a condition that tells them apart may be missing. Equal entries are not always repeated. Hit rate of the full screen: of about 370,000 compounds, about 150 (0.041%) were called active. The shares of active, inactive and inconclusive entries below differ from those in the screen. Calls come from the whole dose curve; as a rule, active = well fitted inhibition curve with a large enough effect; inconclusive = small, poorly fitted or top-dose-only effect; inactive = flat fitted curve, though single readings scatter. A potency beside an inconclusive call is a rough fit, not a confirmed value.

biological target: Beta-lactamase (Escherichia coli (strain K12)) (UniProt P00811); test: qHTS Inhibitors of AmpC Beta-Lactamase (assay with detergent); conditions: AmpC hydrolysis of nitrocefin, absorbance 480 nm, 0.01% Triton; series mostly up to 114 µM; note: nearly all actives have a fitted effect of over 25% in size
Procedure, shortened: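 20 mM phosphate pH 7.0 + 0.01% (detergent screen) or 0.0001% Triton X-100; 5.3 nM AmpC reagent; cpd preinc 15 min RT; nitrocefin (800 uM stock) to start; A480 q20 s × 4 min; Activity was normalised to no-enzyme and no-compound control wells.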
Potency is the fitted concentration of half-maximal effect; tags give direction and shape of the fitted curve.

UniProt P00811, sequence (P00811 whole entry, looked up): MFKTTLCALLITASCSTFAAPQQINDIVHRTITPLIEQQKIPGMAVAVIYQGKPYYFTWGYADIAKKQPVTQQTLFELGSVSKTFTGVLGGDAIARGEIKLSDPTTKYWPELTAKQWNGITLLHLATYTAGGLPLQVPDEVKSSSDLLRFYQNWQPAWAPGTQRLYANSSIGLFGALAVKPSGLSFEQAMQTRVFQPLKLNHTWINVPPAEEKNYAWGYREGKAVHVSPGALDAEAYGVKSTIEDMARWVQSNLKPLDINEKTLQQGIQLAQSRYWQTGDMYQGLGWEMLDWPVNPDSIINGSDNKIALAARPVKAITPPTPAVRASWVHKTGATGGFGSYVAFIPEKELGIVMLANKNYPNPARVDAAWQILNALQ

Q: For `Cc1cc(OCc2nc(-c3cccs3)no2)cc(C)c1Cl`, which Potency is on record?
A: The Potency was inconclusive: 35.5 µM [inhibitor, partial curve, poor fit].

Q: How did the Potency turn out when `O=C(N/N=C/c1ccc(Br)o1)c1cccnc1` was run?
A: Its Potency is inconclusive: 39.8 µM [inhibitor, partial curve].

Q: With `CCCCn1c(N)c(N(CCC(C)C)C(=O)C2CC(=O)N(c3ccc(OC)cc3OC)C2)c(=O)[nH]c1=O` (stereo not drawn) as the molecule, how does the Potency read?
A: The Potency was “inactive”.

Q: How did the Potency turn out when `Nc1nc(SCC(=O)NC2CCCC2)[nH]c(=O)c1-c1ccccc1` was run?
A: The Potency was inconclusive: 1.41 µM [inhibitor, full curve, poor fit].

Q: With `O=C(COC(=O)/C=C/c1ccc(Cl)cc1)NC1CCCCCC1` as the molecule, how does the Potency read?
A: The Potency was inconclusive: 1.12 µM [inhibitor, full curve, poor fit].

Q: How did the Potency turn out when `O=C1CCCC2=C1C(Cc1ccccc1)C1=C(CCCC1=O)O2` was run?
A: The Potency was inconclusive: 39.8 µM [inhibitor, full curve].

Q: With `CCc1nnc(NC(=O)c2ccc3c(c2)C(=O)N(C(C)(C)C)C3=O)s1` as the molecule, how does the Potency read?
A: The Potency was inconclusive: 25.1 µM [inhibitor, full curve, poor fit].

Q: Which Potency does the source give for `Cc1c(Cl)cccc1NC(=O)NC1CCCCC1` here?
A: Its Potency is inconclusive: 2.82 µM [inhibitor, full curve, poor fit].

Q: How did the Potency turn out when `CC(C)c1nnc(NC(=O)CCCCCN2C(=O)C3C4C=CC(C4)C3C2=O)s1` (stereo not drawn) was run?
A: The Potency was inconclusive: 22.4 µM [inhibitor, full curve, poor fit].

Q: With `Cc1cccc(-n2cnc(C(=O)NNC(=S)Nc3ccccc3)c2)n1` as the molecule, how does the Potency read?
A: Its Potency is inconclusive: 2.24 µM [inhibitor, full curve, poor fit].

Q: With `Cc1cc(C)c2c(CC(=O)N(Cc3ccc(Cl)cc3)Cc3ccco3)coc2c1` as the molecule, how does the Potency read?
A: Its Potency is “inactive”.

Q: For `O=C(Nc1ccccc1)c1nc[nH]c1C(=O)O`, which Potency is on record?
A: Its Potency is “inactive”.

Q: How did the Potency turn out when `CCN(CC)C(=O)c1ccc(NS(=O)(=O)c2ccc3[nH]c(=O)[nH]c3c2)cc1` was run?
A: The Potency was “inactive”.

Q: `C/C(=N\NC(=O)c1ccccn1)c1ccc(C(=O)O)s1` was tested. Which Potency did it give?
A: The Potency was “inactive”.

Q: Which Potency does the source give for `CC1(C)CC(=O)C2=C(C1)OC(N)=C([N+](=O)[O-])C2c1cccs1` (stereo not drawn) here?
A: Its Potency is inconclusive: 100 µM [inhibitor, partial curve].

Q: For `NCCCC[C@H]1NC(=O)[C@H](CCC(=O)O)NC(=O)c2cc([N+](=O)[O-])cc(I)c2OCC[C@@H](C(N)=O)NC1=O`, which Potency is on record?
A: The Potency was inconclusive: 0.316 µM [inhibitor, full curve, poor fit].

Q: With `COC(=O)C1=C(CSc2nc3ccccc3s2)NC(=O)NC1c1ccc(F)cc1` (stereo not drawn) as the molecule, how does the Potency read?
A: Its Potency is inconclusive: 1.41 µM [inhibitor, full curve, poor fit].

Q: Which Potency does the source give for `CCN1C(=NCCc2c[nH]c3ccccc23)N[C@@H](c2ccccc2)[C@H](C(=O)OC)[C@H]1C` here?
A: The Potency was inconclusive: 56.2 µM [inhibitor, full curve, poor fit] and inconclusive: 794 nM [inhibitor, full curve].
